From PubChem BioAssay AID504845 (National Center for Advancing Translational Sciences (NCATS), 2011)
The whole screen tested about 390,000 compounds, of which about 150 (0.038%) were called active. The inconclusive results got no clear call from the source; some entries with a clear call stand among them for comparison. Calls follow the shape of the dose curve; as a rule, active = well fitted inhibition curve with a large enough effect; inconclusive = small, poorly fitted or top-dose-only effect; inactive = no such curve, though single readings can be large or run the other way. A potency beside an inconclusive call is a rough fit, not a confirmed value.

Biological target: Regulator of G-protein signaling 4 (Homo sapiens) (UniProt P49798)
Assay: Inhibitors of Regulator of G Protein Signaling (RGS) 4: qHTS; also: nearly all actives have a fitted effect of over 75% in size
Details: Transcreener GDP fluorescence polarization, RGS4-accelerated GTP hydrolysis; series mostly up to 114 µM
Outline: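 MLSMR compounds (23 nl, pin-transferred) preincubated 10 min at room temperature with a 500nM (2x) first reagent, then RGS4 at 900nM (2x) plus Transcreener GDP mix added; fluorescence polarization (620/688 nm) read before and after 90 min at 30 °C.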
Potency is read from the fitted curve at half-maximal effect; tags tell the direction and shape of the fitted curve.

Sequence of UniProt P49798 (P49798 whole entry, looked up): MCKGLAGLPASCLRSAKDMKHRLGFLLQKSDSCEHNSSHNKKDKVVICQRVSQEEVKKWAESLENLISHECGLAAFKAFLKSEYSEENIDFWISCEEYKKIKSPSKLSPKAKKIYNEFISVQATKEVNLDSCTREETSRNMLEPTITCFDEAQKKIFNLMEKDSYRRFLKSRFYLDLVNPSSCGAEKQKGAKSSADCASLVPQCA

Compound	Potency
Cc1ccc(OCC(=O)NCc2ccco2)cc1C	inconclusive: 70.8 µM [inhibitor, single point]
Cc1ccc2oc(=O)cc(CN3CCCCC3)c2c1	inactive
CCOC(=O)N1CCN(C(=O)c2ccc3c(=O)n(-c4ccc(OC)cc4OC)c(=S)[nH]c3c2)CC1	inconclusive: 50.1 µM [inhibitor, single point]
Cc1ccc(CN(Cc2cc3cc4c(cc3[nH]c2=O)OCCO4)Cc2nnnn2Cc2ccco2)cc1	inconclusive: 50.1 µM [inhibitor, partial curve, poor fit]
COc1ccc(S(=O)(=O)Nc2cccc(-c3ccc4nncn4n3)c2)c(OC)c1	inconclusive: 50.1 µM [inhibitor, partial curve, poor fit]
CNC(=S)N1N=C(c2ccc(Br)cc2)CC1c1ccc(Br)cc1 (stereo not given)	inconclusive: 100 µM [inhibitor, single point]
Cc1cccc(NC(=O)CN2C(=O)N/C(=C/c3ccc(C)o3)C2=O)c1	inconclusive: 50.1 µM [inhibitor, partial curve, poor fit]
CCCN(CC(=O)Nc1ccccc1OC)Cc1c(O)ccc2ccccc12	inconclusive: 35.5 µM [inhibitor, partial curve, poor fit]
CCCCCCCCCCCCCCC[C@H](O)[C@@H](N)CO	inconclusive: 0.752 µM [inhibitor, partial curve, poor fit]
c1ccc2c(c1)nc(N1CCOCC1)c1c3ccccc3[nH]c21	inconclusive: 89.1 µM [inhibitor, single point]
Nc1nc(=S)ss1	inconclusive: 50.1 µM [inhibitor, partial curve, poor fit]
COc1cc(/C=N\NC(=O)c2ccc(C)nc2)ccc1OC(=O)c1ccc2c(c1)OCO2	inconclusive: 10 µM [inhibitor, full curve, poor fit]
Cc1ccc(C2CCN(C(=O)Nc3ccc(Cl)cc3)C2)cc1 (stereo not given)	inactive
Oc1ccc2ccc3cccc[n+]3c2c1	inconclusive: 89.1 µM [inhibitor, single point]
O=C1CC(=O)N(CCc2ccccc2)C(=O)N1CCc1ccccc1	inconclusive: 79.4 µM [inhibitor, partial curve, poor fit]
COC(=O)c1c(-c2ccc(OC)cc2)sc2cc(OC)c(OC)cc12	inactive
COc1ccc(C(C2C(=O)CC(C)(C)CC2=O)C2C(=O)CC(C)(C)CC2=O)cc1	inconclusive: 17.8 µM [inhibitor, full curve, poor fit]
Cn1c(=O)oc2cc(S(=O)(=O)Nc3cccc([N+](=O)[O-])c3)ccc21	inactive
C/C(=N\NC(N)=S)c1ccc(Cl)s1	inconclusive: 100 µM [inhibitor, partial curve, poor fit]
Cc1ccc(NC(=S)N=Nc2c(O)n(C)c3ccc(S(=O)(=O)N4CCOCC4)cc23)cc1	inconclusive: 89.1 µM [inhibitor, partial curve, poor fit]

Compound	Potency
CCOc1ccc(CNc2ccc3c(c2)ncn3C(C)(C)C)cc1	inactive
COc1cc2c(cc1NC(=O)CSc1ccccn1)oc1ccccc12	inconclusive: 89.1 µM [inhibitor, single point]
O=C(NC(=S)Nc1cc(C(F)(F)F)ccc1N1CCOCC1)c1ccc(-c2cccc(Cl)c2)o1	inconclusive: 31.6 µM [inhibitor, full curve, poor fit]
CCCCN(C)CCCNC(=O)C1CCC(CNS(=O)(=O)c2c(C)cc(C)cc2C)CC1 (stereo not given)	inconclusive: 79.4 µM [inhibitor, partial curve, poor fit]
CCn1c(CNC(C)=O)nnc1SCC(=O)c1ccc(Br)cc1	inconclusive: 31.6 µM [inhibitor, full curve, poor fit]
O=C(O)C(c1ccccc1)N1C(=O)/C(=C\c2ccc(-c3cccc(Cl)c3)o2)SC1=S (stereo not given)	inconclusive: 35.5 µM [inhibitor, full curve, poor fit]
O=C(Oc1ccc(Br)cc1C(=O)/C=C/c1ccccc1F)c1ccco1	inconclusive: 100 µM [inhibitor, single point]
Cc1ccc(C)c(NC(CC(=O)c2ccccc2)C(=O)OCC(=O)c2cccs2)c1 (stereo not given)	inconclusive: 39.8 µM [inhibitor, partial curve, poor fit]
Cc1ccc(-n2c(-c3cnccn3)n[nH]c2=S)c(Br)c1	inconclusive: 89.1 µM [inhibitor, single point]
NS(=O)(=O)c1ccc(N=Nc2c[nH]c(=O)c(O)c2)cc1	inconclusive: 44.7 µM [inhibitor, partial curve, poor fit]
CC(C)Oc1ccc(C2CCC(=O)NC2=O)cc1 (stereo not given)	inconclusive: 50.1 µM [inhibitor, partial curve, poor fit]
Cc1ccc(NC(=O)NC(=O)CN2CCN(c3ccc(O)cc3)CC2)c(C)c1	inconclusive: 50.1 µM [inhibitor, partial curve, poor fit]
Cc1cc(C)nc(S/C=C/C(=O)c2ccccc2F)n1	inconclusive: 17.8 µM [inhibitor, full curve, poor fit]
O=[N+]([O-])c1ccc(Cl)c(/C=N/n2c(COc3ccccc3)n[nH]c2=S)c1	inconclusive: 50.1 µM [inhibitor, partial curve, poor fit]
N#CC1=C(N)SC(N)=C(C#N)C1c1cccc(O)c1	inconclusive: 44.7 µM [inhibitor, partial curve, poor fit]
S=C(NCC1CCCO1)N1CCN(c2nc(-c3ccc(Cl)cc3)cs2)CC1 (stereo not given)	inconclusive: 89.1 µM [inhibitor, partial curve, poor fit]
CCCCNC(=O)CCn1c(=O)c2ccccc2n(Cc2ccc(Cl)cc2)c1=O	inactive
O=C(N/N=C/c1cc(Br)ccc1O)C(=O)Nc1ccccc1OC(F)(F)C(F)F	inactive
COc1ccc(NC(=O)c2oc3ccccc3c2NC(=O)C23CC4CC(CC(C4)C2)C3)c(OC)c1	inactive
O=C(C=Cc1cccc(Cl)c1)c1ccccc1	inconclusive: 31.6 µM [inhibitor, full curve, poor fit]

Compound	Potency
Cc1ccc(CC(=O)Nc2ccc3c(c2)N(C)C(=O)c2ccccc2S3)cc1	inconclusive: 50.1 µM [inhibitor, partial curve, poor fit]
O=C(c1ccc(Cl)cc1)C(CN1CCCCC1)c1ccccc1 (stereo not given)	inconclusive: 44.7 µM [inhibitor, partial curve, poor fit]
CCOC(=O)C1Nc2ccccc2C2C(O)C(O)CC12 (stereo not given)	inconclusive: 79.4 µM [inhibitor, single point]
Cc1ccc(Nc2sc(C(=O)c3ccccc3)c(N)c2C(=O)Nc2ccc(Cl)cc2)cc1	inconclusive: 50.1 µM [inhibitor, partial curve, poor fit]
COc1ccc(C2CC(C(C)(C)C)=NN2c2ccc(S(N)(=O)=O)cc2)cc1 (stereo not given)	inactive
O=C(CCS(=O)(=O)c1nc(-c2cccs2)cc(C(F)(F)F)n1)Nc1cc(Br)ccc1O	inconclusive: 50.1 µM [inhibitor, partial curve, poor fit]
CC1=C(C(N)=O)C(c2ccccc2[N+](=O)[O-])n2ncnc2N1 (stereo not given)	inconclusive: 17.8 µM [inhibitor, full curve, poor fit]
NC(=O)c1c(NC(=O)C2CC=CCC2C(=O)O)sc2c1CCCCC2 (stereo not given)	inconclusive: 89.1 µM [inhibitor, single point]
CCCCCCNC(=O)N[C@@H](C(=O)NCCC[C@H]1CN2C(=NC[C@@H]2Cc2ccccc2)N1CCc1cccc(OC)c1)C(C)C	inconclusive: 28.2 µM [inhibitor, full curve, poor fit]
Cc1c(NS(=O)(=O)c2ccc(Cl)c(C(=O)OCC(=O)NCc3ccco3)c2)c(=O)n(-c2ccccc2)n1C	inconclusive: 79.4 µM [inhibitor, partial curve, poor fit]
CCCCCCCC/C=C\CCCCCCCC(=O)OC[C@H](CO)OC(C)=O	inconclusive: 4.23 µM [inhibitor, partial curve, poor fit]
CCOC(=O)/C(C#N)=C1\CCCN1CC(N)=S	inconclusive: 56.2 µM [inhibitor, partial curve, poor fit]
Cc1ccc([N+](=O)[O-])cc1S(=O)(=O)N1CCC(C)CC1	inconclusive: 89.1 µM [inhibitor, partial curve, poor fit]
Cc1ccc(NC(=O)C(=Cc2ccc(C(=O)O)cc2)C(=O)Nc2ccc(C)cc2C)c(C)c1	inconclusive: 10 µM [inhibitor, full curve, poor fit]
CCOC(=O)N1CCN(c2cc(NCCC(=O)O)c3c4c(onc24)-c2ccccc2C3=O)CC1	inconclusive: 79.4 µM [inhibitor, partial curve, poor fit]
COc1cc(OC)c(C2CC(=O)N3CN(c4ccc(C)cc4)CSC3=C2C#N)cc1OC (stereo not given)	inconclusive: 79.4 µM [inhibitor, partial curve, poor fit]
O=C(NCc1cccs1)c1cc2c(s1)-c1ccccc1OC2	inconclusive: 79.4 µM [inhibitor, single point]
CNS(=O)(=O)c1ccc(C)cc1	inconclusive: 50.1 µM [inhibitor, partial curve, poor fit]
Cc1ccc(C)c(C(C)NC(=S)NC2CCCCC2)c1 (stereo not given)	inactive
O=C(NCc1n[nH]c(=S)n1-c1ccc(F)cc1)c1ccc(S(=O)(=O)N2CCOCC2)cc1	inconclusive: 79.4 µM [inhibitor, partial curve, poor fit]
